From PMC4336329 (PLoS ONE, 2015)
The whole screen tested about 310,000 compounds, of which about 14,000 (4.5%) showed an effect of 50% or more. The effect is printed as a negative number. The list shows a part of the results.

Each molecule was assayed against human ether-à-go-go-related gene (hERG) potassium channel (human, UniProt Q12809) (assay: primary screen, population patch clamp on CHO cells stably expressing hERG).
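Also: peak tail current of the secondary pulse compared with the same well before compound.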

Sequence of human ether-à-go-go-related gene (hERG) potassium channel (Q12809 whole entry, looked up): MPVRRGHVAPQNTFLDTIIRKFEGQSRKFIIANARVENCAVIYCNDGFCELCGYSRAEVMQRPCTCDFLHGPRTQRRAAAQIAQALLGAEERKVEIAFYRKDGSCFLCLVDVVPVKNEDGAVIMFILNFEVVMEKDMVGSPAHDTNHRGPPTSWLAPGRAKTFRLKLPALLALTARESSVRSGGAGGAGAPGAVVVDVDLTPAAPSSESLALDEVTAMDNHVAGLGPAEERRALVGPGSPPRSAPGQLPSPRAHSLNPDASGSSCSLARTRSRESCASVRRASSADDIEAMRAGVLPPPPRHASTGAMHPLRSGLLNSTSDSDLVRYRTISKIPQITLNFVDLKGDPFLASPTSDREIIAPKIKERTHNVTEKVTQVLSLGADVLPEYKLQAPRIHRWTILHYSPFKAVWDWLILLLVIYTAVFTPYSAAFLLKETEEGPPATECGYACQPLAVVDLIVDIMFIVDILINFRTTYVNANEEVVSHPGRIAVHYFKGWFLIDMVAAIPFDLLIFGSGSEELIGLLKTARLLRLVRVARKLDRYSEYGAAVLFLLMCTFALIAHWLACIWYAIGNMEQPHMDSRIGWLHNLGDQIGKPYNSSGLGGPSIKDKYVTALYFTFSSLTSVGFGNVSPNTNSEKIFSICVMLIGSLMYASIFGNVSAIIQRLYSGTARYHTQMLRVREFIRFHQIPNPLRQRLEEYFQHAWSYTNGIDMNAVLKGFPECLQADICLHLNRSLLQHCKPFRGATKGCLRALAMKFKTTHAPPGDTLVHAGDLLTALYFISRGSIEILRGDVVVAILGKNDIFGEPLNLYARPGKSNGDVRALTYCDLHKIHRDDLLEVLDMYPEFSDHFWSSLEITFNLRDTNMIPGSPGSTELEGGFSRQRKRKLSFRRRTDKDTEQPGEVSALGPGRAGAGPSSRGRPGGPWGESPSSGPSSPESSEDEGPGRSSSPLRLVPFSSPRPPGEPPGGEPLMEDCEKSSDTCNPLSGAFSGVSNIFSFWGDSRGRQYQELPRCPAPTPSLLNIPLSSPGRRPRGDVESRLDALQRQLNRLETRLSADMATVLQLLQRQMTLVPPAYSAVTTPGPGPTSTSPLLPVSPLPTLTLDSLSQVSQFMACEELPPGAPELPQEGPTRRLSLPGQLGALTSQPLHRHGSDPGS

Question: How did the “hERG current change (%, negative = inhibition) at 10uM” value turn out when `CCc1ccccc1N(C(=O)CNC(=O)c1ccco1)C(C(=O)NC1CCCC1)c1cccnc1` (stereo not shown) was run?
Answer: 31.3%

Question: Which “hERG current change (%, negative = inhibition) at 10uM” value does the source give for `CCOc1ccc(C(C)NC(=S)NC2CCCCC2)cc1` (stereo not shown) here?
Answer: 17.2%

Question: `CCOc1ccc(CN(C)CC(=O)NCc2ccccc2)cc1` was tested. Which “hERG current change (%, negative = inhibition) at 10uM” value did it give?
Answer: -76.1%

Question: How did the “hERG current change (%, negative = inhibition) at 10uM” value turn out when `CC(=O)c1ccc(NC(=O)CCc2nc3sc4c(c3c(=O)[nH]2)CCCC4)cc1` was run?
Answer: 8.92%

Question: `C/C(=N\N=C(N)N)c1ccc(C)c(C)c1` was tested. Which “hERG current change (%, negative = inhibition) at 10uM” value did it give?
Answer: 4.41%

Question: `Cn1cnnc1SCC(=O)N1CCN(C(=O)c2ccco2)CC1` was tested. Which “hERG current change (%, negative = inhibition) at 10uM” value did it give?
Answer: 11%

Question: How did the “hERG current change (%, negative = inhibition) at 10uM” value turn out when `NC(=O)Cn1cc(C(=O)COc2ccccc2)c2ccccc21` was run?
Answer: -3.45%

Question: For `O=C(/C=C/c1ccccc1Cl)Nc1ccc(-c2nnc3n2CCCCC3)cc1`, which “hERG current change (%, negative = inhibition) at 10uM” value is on record?
Answer: -6.47%

Question: Which “hERG current change (%, negative = inhibition) at 10uM” value does the source give for `CCOc1ccc(-n2nnc3c(=O)n(C/C=C/c4ccccc4)cnc32)cc1` here?
Answer: 16.2%

Question: How did the “hERG current change (%, negative = inhibition) at 10uM” value turn out when `COc1cccc(C(=O)Nc2ccc(-c3nc4ccccc4o3)c(O)c2)c1` was run?
Answer: 6.18%

Question: Which “hERG current change (%, negative = inhibition) at 10uM” value does the source give for `CCO/C=C1/C(=O)N(c2ccc(OC)cc2)C(=O)c2ccccc21` here?
Answer: -11.9%

Question: `COc1cc(/C=C/C(=O)N2CCN(C(=O)/C=C/c3cc(OC)c(OC)c(OC)c3)CC2)cc(OC)c1OC` was tested. Which “hERG current change (%, negative = inhibition) at 10uM” value did it give?
Answer: 6.31%

Question: `CCOC(=O)c1cnn(Cc2ccccc2)c1N` was tested. Which “hERG current change (%, negative = inhibition) at 10uM” value did it give?
Answer: 8.01%

Question: `Oc1ccc(N=Nc2ccc3c(c2)OCCO3)c(O)c1` was tested. Which “hERG current change (%, negative = inhibition) at 10uM” value did it give?
Answer: 22.6%

Question: `N#Cc1cccc(NC(=O)COC(=O)c2ccccc2Sc2ccccc2C#N)c1` was tested. Which “hERG current change (%, negative = inhibition) at 10uM” value did it give?
Answer: -0.292%

Question: With `O=C(Nc1ccccc1N1CCOCC1)c1ccc2ccccc2n1` as the molecule, how does the “hERG current change (%, negative = inhibition) at 10uM” value read?
Answer: 16.2%

Question: With `CCN(CC(=O)Nc1ccc(OC)cc1)C(=O)CSCc1c(C)noc1C` as the molecule, how does the “hERG current change (%, negative = inhibition) at 10uM” value read?
Answer: -10.2%

Question: With `Cc1ccccc1OCCSc1nnc(-c2cccnc2)n1N` as the molecule, how does the “hERG current change (%, negative = inhibition) at 10uM” value read?
Answer: 34.6%

Question: `COc1ccc(CNc2ncc(-c3ccc(F)cc3)n2C)c2ccccc12.O=C(O)C(=O)O` was tested. Which “hERG current change (%, negative = inhibition) at 10uM” value did it give?
Answer: -35.1%

Question: How did the “hERG current change (%, negative = inhibition) at 10uM” value turn out when `O=C(Nc1cccc(C(=O)O)c1)/C(=C\c1ccc2c(c1)OCO2)NC(=O)c1ccccc1` was run?
Answer: 19%

Question: `COCCn1c(=NC(=O)CCS(=O)(=O)c2ccccc2)sc2cc(F)ccc21` was tested. Which “hERG current change (%, negative = inhibition) at 10uM” value did it give?
Answer: -8.27%

Question: For `CN(C)N=Nc1nc[nH]c1C(N)=O`, which “hERG current change (%, negative = inhibition) at 10uM” value is on record?
Answer: 2.75%

Question: `CCOC(=O)c1c(S(=O)(=O)NCC(C)c2ccccc2)c(C)n(C)c1C` (stereo not shown) was tested. Which “hERG current change (%, negative = inhibition) at 10uM” value did it give?
Answer: -17.8%

Question: For `O=C(c1ccc(CN2CCc3ccccc3C2)cc1)N1CCCCC1`, which “hERG current change (%, negative = inhibition) at 10uM” value is on record?
Answer: -9.72%

Question: For `CC(/C=N/Nc1nc(N2CCCCC2)nc(N2CCCCC2)n1)=C\c1ccccc1`, which “hERG current change (%, negative = inhibition) at 10uM” value is on record?
Answer: 0.942%

Question: Which “hERG current change (%, negative = inhibition) at 10uM” value does the source give for `CC(C)CNC(=O)c1noc2c1CCCC2` here?
Answer: 8.63%

Question: For `Cc1ccc(OCC(=O)NNC(=O)C2CCN(c3ncccn3)CC2)cc1`, which “hERG current change (%, negative = inhibition) at 10uM” value is on record?
Answer: -18.6%

Question: For `O=C(c1ccccc1N(Cc1ccccc1)S(=O)(=O)c1ccccc1)N1CCOCC1`, which “hERG current change (%, negative = inhibition) at 10uM” value is on record?
Answer: -23.7%

Question: With `O=C(/C=C/c1ccccc1[N+](=O)[O-])OCC(=O)c1ccccc1` as the molecule, how does the “hERG current change (%, negative = inhibition) at 10uM” value read?
Answer: 2.42%

Question: How did the “hERG current change (%, negative = inhibition) at 10uM” value turn out when `CCN1C(=O)CC(c2ccco2)Sc2ccccc21` (stereo not shown) was run?
Answer: -16.8%

Question: For `CC(C)c1nnc(NC(=O)CC(=O)Nc2ccccc2C(=O)O)s1`, which “hERG current change (%, negative = inhibition) at 10uM” value is on record?
Answer: 4.72%

Question: `COc1ccc(C2CCCN2C(=S)Nc2cccc(C)c2)cc1OC` (stereo not shown) was tested. Which “hERG current change (%, negative = inhibition) at 10uM” value did it give?
Answer: -7.76%

Question: `CCOCCc1nnc(NC(=O)C(CC)c2ccccc2)s1` (stereo not shown) was tested. Which “hERG current change (%, negative = inhibition) at 10uM” value did it give?
Answer: -3.07%

Question: Which “hERG current change (%, negative = inhibition) at 10uM” value does the source give for `CCOC(=O)C(CCC(=O)O)(CCC(C)C)c1csc(N)n1` (stereo not shown) here?
Answer: -12.2%

Question: For `Oc1c(C(c2ccccn2)N2CCC(Cc3ccccc3)CC2)cc(Cl)c2cccnc12` (stereo not shown), which “hERG current change (%, negative = inhibition) at 10uM” value is on record?
Answer: 27.4%

Question: With `CSc1nsc(/C=C/Nc2ccc(F)cc2)c1C#N` as the molecule, how does the “hERG current change (%, negative = inhibition) at 10uM” value read?
Answer: 6.11%

Question: `CCCc1nnc(-c2cc(OC)c(OC)c(OC)c2)o1` was tested. Which “hERG current change (%, negative = inhibition) at 10uM” value did it give?
Answer: 19.4%

Question: How did the “hERG current change (%, negative = inhibition) at 10uM” value turn out when `CSc1ncccc1C(=O)OCC(=O)c1cccs1` was run?
Answer: 19.4%

Question: For `Cc1ccc(CN(c2ccc(C(=O)NCc3cccnc3)cc2)S(C)(=O)=O)cc1`, which “hERG current change (%, negative = inhibition) at 10uM” value is on record?
Answer: -14.9%

Question: How did the “hERG current change (%, negative = inhibition) at 10uM” value turn out when `CCCn1c2ccccc2c2nc3ccccc3nc21` was run?
Answer: 13%

Question: How did the “hERG current change (%, negative = inhibition) at 10uM” value turn out when `COc1ccc(C(=O)Cn2nnc(-c3ccccc3NC(=O)C(F)(F)F)n2)cc1` was run?
Answer: -0.715%

Question: `Cc1ccc(NC(=O)COc2ccccc2CNC(C)(C)CC(C)(C)C)cc1` was tested. Which “hERG current change (%, negative = inhibition) at 10uM” value did it give?
Answer: -22.7%

Question: With `Cc1nc(-c2ccc(S(=O)(=O)N3CCN(c4ccccc4)CC3)cc2)co1` as the molecule, how does the “hERG current change (%, negative = inhibition) at 10uM” value read?
Answer: -0.497%

Question: How did the “hERG current change (%, negative = inhibition) at 10uM” value turn out when `Nn1cnc2c(c1=O)C1(CCCCC1)Cc1ccccc1-2` was run?
Answer: 2.08%

Question: `Cc1nonc1OCCN1CCN(c2ccc([N+](=O)[O-])cc2)CC1` was tested. Which “hERG current change (%, negative = inhibition) at 10uM” value did it give?
Answer: -98.3%

Question: For `COc1ccc(N=C2SC(C(=O)N3CCN(c4ccc([N+](=O)[O-])cc4)CC3)CC(=O)N2C)cc1` (stereo not shown), which “hERG current change (%, negative = inhibition) at 10uM” value is on record?
Answer: -68.2%

Question: Which “hERG current change (%, negative = inhibition) at 10uM” value does the source give for `CC(Oc1ccc(Cl)cc1)c1ccnn1S(C)(=O)=O` (stereo not shown) here?
Answer: 4.67%

Question: With `CSc1ccc(Cl)c(C(=O)NNC(=O)c2csc(N3CCOCC3)n2)c1` as the molecule, how does the “hERG current change (%, negative = inhibition) at 10uM” value read?
Answer: 3.28%

Question: For `COc1ccc2nc(NC(=O)CSc3nnc(C)n3N)sc2c1`, which “hERG current change (%, negative = inhibition) at 10uM” value is on record?
Answer: 0.177%

Question: With `CCN(CC)c1ccc(CNc2nc3ccccc3n2C)cc1` as the molecule, how does the “hERG current change (%, negative = inhibition) at 10uM” value read?
Answer: -49.7%

Question: For `FC(F)(F)c1nc(N2CCCC2)ncc1-c1nnnn1-c1ccc(Cl)cc1`, which “hERG current change (%, negative = inhibition) at 10uM” value is on record?
Answer: -4.4%

Question: How did the “hERG current change (%, negative = inhibition) at 10uM” value turn out when `CCOCCCNS(=O)(=O)c1ccc2c(c1)OCCO2` was run?
Answer: -8.07%

Question: Which “hERG current change (%, negative = inhibition) at 10uM” value does the source give for `CSCc1ccc(C(=O)Nc2cc(C)cc(C)c2)cc1` here?
Answer: -6.17%

Question: With `COc1ccccc1NC(=O)CNC(=O)c1ccc(Br)o1` as the molecule, how does the “hERG current change (%, negative = inhibition) at 10uM” value read?
Answer: 6.05%

Question: How did the “hERG current change (%, negative = inhibition) at 10uM” value turn out when `Cl.O=C(NCCOC(=O)c1ccc(C(=O)OCCNC(=O)c2cccnc2)s1)c1cccnc1` was run?
Answer: 7.73%

Question: For `CCOC(=O)Cc1nn(C)c(=O)c2ccccc12`, which “hERG current change (%, negative = inhibition) at 10uM” value is on record?
Answer: 5.42%

Question: `CCCn1c(N2CCOCC2)nc2c1c(=O)[nH]c(=O)n2C` was tested. Which “hERG current change (%, negative = inhibition) at 10uM” value did it give?
Answer: -15.5%

Question: With `O=C(NC(=S)Nc1ccc([N+](=O)[O-])cc1O)C1CCCCC1` as the molecule, how does the “hERG current change (%, negative = inhibition) at 10uM” value read?
Answer: 10.8%
